The whole screen tested about 310,000 compounds, of which about 2,200 (0.71%) showed an effect of 50% or more. The effect is printed as a negative number. Some of the results follow.

The experiment deals with human ether-à-go-go-related gene (hERG) potassium channel (human, UniProt Q12809). The experiment in a line: primary screen, population patch clamp on CHO cells stably expressing hERG.
Chain of human ether-à-go-go-related gene (hERG) potassium channel (Q12809 whole entry, looked up): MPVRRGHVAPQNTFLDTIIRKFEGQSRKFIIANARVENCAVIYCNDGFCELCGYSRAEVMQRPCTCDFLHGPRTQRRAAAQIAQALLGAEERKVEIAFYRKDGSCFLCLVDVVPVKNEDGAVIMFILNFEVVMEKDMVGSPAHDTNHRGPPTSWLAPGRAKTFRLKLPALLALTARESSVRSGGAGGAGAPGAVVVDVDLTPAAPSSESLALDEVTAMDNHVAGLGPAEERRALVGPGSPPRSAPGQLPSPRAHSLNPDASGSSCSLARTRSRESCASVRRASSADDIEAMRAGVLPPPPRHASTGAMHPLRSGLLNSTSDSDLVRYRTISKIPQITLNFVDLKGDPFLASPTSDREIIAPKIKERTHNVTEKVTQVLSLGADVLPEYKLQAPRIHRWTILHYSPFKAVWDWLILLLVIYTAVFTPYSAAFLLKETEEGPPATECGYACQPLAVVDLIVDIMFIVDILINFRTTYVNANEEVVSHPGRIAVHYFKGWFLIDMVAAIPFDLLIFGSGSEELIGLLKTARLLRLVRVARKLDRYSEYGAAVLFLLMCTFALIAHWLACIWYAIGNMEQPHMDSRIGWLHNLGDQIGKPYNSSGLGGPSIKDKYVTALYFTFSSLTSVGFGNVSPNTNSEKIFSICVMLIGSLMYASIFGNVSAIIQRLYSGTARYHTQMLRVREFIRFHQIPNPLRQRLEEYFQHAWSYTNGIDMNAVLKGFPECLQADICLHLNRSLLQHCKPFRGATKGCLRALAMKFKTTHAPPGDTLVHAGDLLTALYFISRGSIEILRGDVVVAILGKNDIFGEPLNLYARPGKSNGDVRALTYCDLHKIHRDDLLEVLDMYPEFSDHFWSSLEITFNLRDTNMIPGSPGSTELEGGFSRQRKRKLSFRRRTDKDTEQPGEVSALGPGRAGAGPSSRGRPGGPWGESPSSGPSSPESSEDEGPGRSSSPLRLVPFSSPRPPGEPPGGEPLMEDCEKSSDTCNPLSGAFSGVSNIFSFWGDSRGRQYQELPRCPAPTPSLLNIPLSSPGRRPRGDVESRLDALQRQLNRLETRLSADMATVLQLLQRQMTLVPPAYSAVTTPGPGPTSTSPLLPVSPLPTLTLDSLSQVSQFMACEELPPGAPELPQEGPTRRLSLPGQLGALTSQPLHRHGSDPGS
Consider `COC(=O)c1ccccc1NS(=O)(=O)c1ccc2c3c(cccc13)C(=O)N2`, for which the “hERG current change (%, negative = inhibition) at 1uM” value was 14.3%.
The same measure for `Br.C=CCN1CCc2cc(O)c(O)cc2C(c2ccccc2)C1` (stereo not drawn): 10.1%; for `CCN(C(=O)c1ccccc1)c1ccc([N+](=O)[O-])cc1`: -3.87%.
The same measure for `COCCCN(CCNC(=O)c1ccc(NC2=NC3CS(=O)(=O)CC3S2)cc1)Cc1ccco1` (stereo not drawn): 6.47%.
The same measure for `Cc1cc(C)cc(NC(=O)C2CC(=O)n3ncnc3N2)c1` (stereo not drawn): 11.7%; for `CC1CCCC(NC(=O)CCCn2ncn3c(cc4occc43)c2=O)C1C` (stereo not drawn): 9.19%; for `O=c1n(-c2cccc(Cl)c2)c(=O)n2n1CCC2`: 0.155%.
Turning to `CC(C)OC(=O)CSc1nnc(-c2ccc(Cl)cc2Cl)o1`, the “hERG current change (%, negative = inhibition) at 1uM” value amounted to 2.47%.
The same measure for `COc1ccc(CCNC(=O)CSCc2c(F)cccc2Cl)cc1OC`: -0.925%; for `COc1ccc(S(=O)(=O)NC2CCCC2)cc1C(N)=O`: 7.28%; for `CCOc1ncccc1C(=O)Nc1cccc(-c2nc3cccnc3s2)c1`: 7.41%.
The same measure for `COc1ccc(CCNS(=O)(=O)c2ccc(Br)s2)cc1`: 15.6%.
The same measure for `COc1cccc(CN2CC(C(=O)NC3CCC(O)CC3)CCC2=O)c1` (stereo not drawn): 14.5%.
Consider `CCN(CC)S(=O)(=O)c1cccc(C(=O)Nc2ccc(S(=O)(=O)NC3=NCCCCC3)cc2)c1`, for which the “hERG current change (%, negative = inhibition) at 1uM” value came out at 13.5%.
For the compound `COc1ccc(/C(C)=N/Nc2nc(C)cc(-c3ccccc3)n2)cc1`, the “hERG current change (%, negative = inhibition) at 1uM” value worked out at 10.8%.
Take `COCc1cc(C(C)=O)ccc1OCC(=O)Nc1ccc(NC(C)=O)cc1`: the “hERG current change (%, negative = inhibition) at 1uM” value is -3.86%.
The same measure for `Cc1ccc2cc(CN(Cc3ccco3)C(=O)c3ccccc3)c(=O)[nH]c2c1C`: 2.45%.
The same measure for `COc1ccccc1C1C([N+](=O)[O-])=C(N)Oc2c1c(=O)oc1ccccc21` (stereo not drawn): 15.6%.
In the case of `CC1=CC(C)(C)[N+](C)(C)c2ccc(C)cc21.[I-]`, the “hERG current change (%, negative = inhibition) at 1uM” value was found to be 19.2%.
The same measure for `Cc1nn(C(=O)CCC(=O)NCc2ccc(OC(C)C)cc2)c2ccccc12`: 9.58%; for `C=CCOc1nc2c(c(=O)n(C)c(=O)n2C)n1Cc1ccccc1Cl`: 8.43%; for `O=C(CCCN1C(=O)c2cccc3cccc(c23)C1=O)N1CCN(Cc2ccc3c(c2)OCO3)CC1`: 0.941%.
The same measure for `Cc1cc(C(=O)O)c(C)n1C1CC1`: 11%; for `[O-][n+]1ccccc1SCc1ccccc1`: 14.9%; for `CCOC(=O)c1ccc(-c2c(-c3ccc(OC)cc3)oc(=O)c3cc(OC)c(OC)cc23)cc1F`: 14.4%.
The same measure for `CCc1cc(=O)[nH]c(SCc2cccnc2)n1`: 15.2%; for `CC(NC(=O)CN(C)Cc1nc2ccccc2c(=O)[nH]1)c1ccccc1` (stereo not drawn): 9.95%; for `CCOc1ccc(C(=O)OCC(=O)c2c(N)n(C)c(=O)n(C)c2=O)cc1OCC`: 13.1%.
`CC1(C)CC(=O)C(=Cc2cn(CCC#N)nc2-c2ccc(Cl)cc2)C(=O)C1`: the “hERG current change (%, negative = inhibition) at 1uM” value was 4.96%.
The same measure for `CCOC(=O)c1c(NC(=O)Nc2ccc(Cl)cc2)sc(C)c1C`: 2.19%.
The same measure for `COc1ccc(-c2nc(C(N)=O)c3[nH]c(=O)n(-c4ccccc4OC)c3n2)c(OC)c1`: 8.6%; for `CCCCCC[N+](C)(C)CC/C=C1/c2ccccc2Sc2ccc(Cl)cc21.[Br-]`: -10.9%.
As to `CCOC(=O)N/N=C/c1c[nH]c2ccccc12`, the “hERG current change (%, negative = inhibition) at 1uM” value came out at 0.44%.
The same measure for `Cc1cc(C)n2nc(C(=O)OCC(=O)N(C)CC(=O)Nc3ccc(F)cc3)nc2n1`: 7.24%.
The same measure for `Cc1cc(C)c(N=C2C(=O)Nc3ccccc32)c(C)c1`: 7.19%; for `CCOC(=O)C1CCN(C2=C(NS(=O)(=O)c3ccc(Br)cc3)C(=O)c3ccccc3C2=O)CC1`: 10.4%.
`CC1CCCCC1NC(=O)CSc1nnnn1-c1ccccc1` (stereo not drawn): the “hERG current change (%, negative = inhibition) at 1uM” value is 3.16%.
As for `CCc1ccccc1NC(=O)c1ccc(F)c(S(=O)(=O)N2CCC(C(N)=O)CC2)c1`, the “hERG current change (%, negative = inhibition) at 1uM” value is given as 8.64%.
The same measure for `Cc1ccc(S(=O)(=O)CCN2CCN(c3ccccn3)CC2)cc1`: 8.75%; for `O=C(CN1CCC(C(=O)c2ccc3c(c2)OCCO3)CC1)Nc1ccccc1C(F)(F)F`: 12%; for `CN(C)C(=O)CSc1nnc(-c2cccs2)n1-c1ccccc1`: 10%.
The same measure for `CCn1c(SCc2cc(=O)[nH]c3ccccc23)nnc1C1CC1`: 8.69%; for `CC1(C(=O)CSc2nc3ccccc3[nH]2)CCC(=O)O1` (stereo not drawn): -38.6%.
The same measure for `COc1ccc(CN2CN(S(=O)(=O)c3ccccc3)c3nc4ccccc4nc32)cc1`: 5.6%; for `C[C@H](NC(=O)Nc1cccc(Br)c1)C(=O)O`: 3.4%.
`CN(C)C(=O)c1ccc(-n2cccn2)nc1`: the “hERG current change (%, negative = inhibition) at 1uM” value came out at 4.76%.
With `CCOC(=O)c1c(C)[nH]c(C(=O)N2CCN(CC)CC2)c1C`, the “hERG current change (%, negative = inhibition) at 1uM” value is recorded as 18.9%.
The same measure for `Cl.N=c1sccn1CC(=O)Nc1cc(S(=O)(=O)N2CCCC2)ccc1Cl`: -1.64%.
The same measure for `CC(C)(C)CN1CCC(Oc2cccc(C(=O)N3CCNC(=O)C3(C)C)c2)CC1`: 2.39%; for `O=C1CC(N2CCC(c3nc4ccccc4s3)CC2)C(=O)N1Cc1ccccc1` (stereo not drawn): -25.3%; for `CCOC(=O)c1c(C)[nH]c(C(=O)COC(=O)CNS(=O)(=O)c2ccc(C)cc2)c1C`: 11.6%.
The same measure for `CNC(=S)N/N=C/c1ccc(N(C)C)cc1`: -2.23%; for `COc1cccc(C2CC(c3cccc(Br)c3)n3nc(N)nc3N2)c1` (stereo not drawn): 6.58%.
On to `CCOCCCNCc1ccc(OCCC(C)C)c(OC)c1.O=C(O)C(=O)O`, for which the “hERG current change (%, negative = inhibition) at 1uM” value is 2.13%.
The same measure for `CC(=O)Nc1ccc(C(=O)Nc2ccc(S(=O)(=O)N3CCOCC3)cc2)cc1`: 17.1%.
The same measure for `CCOC(=O)CSc1nnc(CSc2nc3sc4c(c3c(=O)[nH]2)CCC4)n1-c1ccccc1`: 7.38%; for `Cl.OC(COc1ccc(OCC(O)CN2CCCCCC2)cc1)CN1CCCCCC1` (stereo not drawn): 11.6%.

(Values after publication PMC4336329 (PLoS ONE, 2015).)
